{"source": "the supplement of paper PMC3334620", "note": "The full ranking holds about 33,000 sequences; the median of “E-score (-0.5 to 0.5)” is about -0.035, and the highest 2% start at about 0.34. Some of the results follow.", "data": [{"target": "T1, Mot3 (UniProt P54785)", "T1 sequence": "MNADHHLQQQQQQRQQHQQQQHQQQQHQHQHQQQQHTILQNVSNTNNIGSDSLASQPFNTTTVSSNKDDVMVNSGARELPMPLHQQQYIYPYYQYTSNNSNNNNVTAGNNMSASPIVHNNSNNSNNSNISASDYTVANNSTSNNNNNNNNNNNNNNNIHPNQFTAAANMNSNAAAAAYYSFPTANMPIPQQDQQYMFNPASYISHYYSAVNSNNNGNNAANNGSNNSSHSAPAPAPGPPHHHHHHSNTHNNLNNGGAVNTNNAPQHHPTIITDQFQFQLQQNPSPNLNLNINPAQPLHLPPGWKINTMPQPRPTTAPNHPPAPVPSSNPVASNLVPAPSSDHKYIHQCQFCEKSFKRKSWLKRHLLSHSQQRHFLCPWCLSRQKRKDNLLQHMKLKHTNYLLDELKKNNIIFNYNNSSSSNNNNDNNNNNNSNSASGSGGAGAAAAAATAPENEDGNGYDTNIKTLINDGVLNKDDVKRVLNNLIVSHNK", "assay": "PBM E-score (8-mer binding enrichment) (E-score (-0.5 to 0.5)); higher = stronger / more preferred TF binding; most listed sequences are background and not binding sites", "conditions": "protein concentration: 200 nM; construct: GST-full length", "procedure,_shortened": "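PURExpress in vitro transcription/translation supplied GST-tagged yeast transcription factors, either full-length or DNA-binding domain. Applied at about 100-200 nM to universal all-10-mer Agilent arrays double-stranded by primer extension, the bound protein was detected with fluorescent anti-GST. E-scores, modified Wilcoxon-Mann-Whitney statistics, were given by the Universal PBM Analysis Suite to ungapped eight-base words pooled with their reverse complements after masliner normalisation.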", "values": [{"sequence": "ACAGCCCT", "PBM E-score": -0.00337}, {"sequence": "CGACATCG", "PBM E-score": 0.0358}, {"sequence": "GTTATCTA", "PBM E-score": -0.104}, {"sequence": "CTCTCACC", "PBM E-score": -0.229}, {"sequence": "GCCCCCCC", "PBM E-score": -0.358}, {"sequence": "AATTAGCT", "PBM E-score": 0.0337}, {"sequence": "GATATTCA", "PBM E-score": -0.24}, {"sequence": "CTGCGGAA", "PBM E-score": -0.131}, {"sequence": "AGCGCGAA", "PBM E-score": -0.0252}, {"sequence": "AACATAGC", "PBM E-score": 0.228}, {"sequence": "CACATCCA", "PBM E-score": 0.104}, {"sequence": "GCATAGGC", "PBM E-score": 0.166}, {"sequence": "AGGGGTAT", "PBM E-score": -0.267}, {"sequence": "CTATAATA", "PBM E-score": 0.0283}, {"sequence": "CAAGCATA", "PBM E-score": 0.0591}, {"sequence": "GTCGCGGA", "PBM E-score": -0.325}, {"sequence": "CTCGGAAA", "PBM E-score": 0.00029}, {"sequence": "CTTGCAGA", "PBM E-score": -0.215}, {"sequence": "GGATGTTA", "PBM E-score": 0.172}, {"sequence": "ACGCCGTA", "PBM E-score": 0.153}, {"sequence": "ACAACACT", "PBM E-score": 0.256}, {"sequence": "CCAAATAC", "PBM E-score": 0.0884}, {"sequence": "CAACGTAC", "PBM E-score": 0.0982}, {"sequence": "AAGGCTTG", "PBM E-score": -0.0805}, {"sequence": "CCCTCTTA", "PBM E-score": -0.0889}, {"sequence": "ACGCATGC", "PBM E-score": 0.169}, {"sequence": "CCAGCGGA", "PBM E-score": -0.219}, {"sequence": "ACTAAATA", "PBM E-score": 0.0693}, {"sequence": "CGATAGCG", "PBM E-score": -0.157}, {"sequence": "AACCACGA", "PBM E-score": -0.111}, {"sequence": "CAGATGCA", "PBM E-score": -0.0813}, {"sequence": "AGAAACAA", "PBM E-score": 0.0948}, {"sequence": "CTTGCAAA", "PBM E-score": 0.0917}, {"sequence": "GAATTGTA", "PBM E-score": 0.0781}, {"sequence": "CATAACCC", "PBM E-score": -0.0772}, {"sequence": "CATTTAGG", "PBM E-score": 0.0581}, {"sequence": "AGCTGGTG", "PBM E-score": 0.021}, {"sequence": "CCTTAAAG", "PBM E-score": 0.0625}, {"sequence": "CATGGCGG", "PBM E-score": -0.197}, {"sequence": "ATACAGAA", "PBM E-score": -0.024}, {"sequence": "CCGTGGCG", "PBM E-score": -0.13}, {"sequence": "CGCGGCTC", "PBM E-score": -0.263}, {"sequence": "CCGTTCGA", "PBM E-score": -0.238}, {"sequence": "CTGCAGAA", "PBM E-score": 0.0201}, {"sequence": "GATTATGA", "PBM E-score": 0.00398}, {"sequence": "CAAGTTCA", "PBM E-score": -0.00983}, {"sequence": "GCTTCGGA", "PBM E-score": -0.189}, {"sequence": "CCAAAAAG", "PBM E-score": -0.0295}, {"sequence": "GTGTTATA", "PBM E-score": 0.307}, {"sequence": "AATTTTAC", "PBM E-score": 0.222}, {"sequence": "ACCACGGG", "PBM E-score": -0.102}, {"sequence": "ACCGGTTA", "PBM E-score": 0.0189}, {"sequence": "CCCGCCGA", "PBM E-score": -0.268}, {"sequence": "ACATTAAG", "PBM E-score": 0.211}, {"sequence": "ATAATCGC", "PBM E-score": -0.0824}, {"sequence": "GGAGGCTA", "PBM E-score": -0.232}, {"sequence": "CCCAAGGC", "PBM E-score": 0.0287}, {"sequence": "GTTGGGTA", "PBM E-score": 0.136}, {"sequence": "CGTCAACG", "PBM E-score": -0.0672}, {"sequence": "ACCAGCTC", "PBM E-score": -0.047}, {"sequence": "TCGGTAAA", "PBM E-score": 0.0601}, {"sequence": "CCTGCCGC", "PBM E-score": -0.0394}, {"sequence": "GATTGTGC", "PBM E-score": -0.00636}, {"sequence": "ACATCGCG", "PBM E-score": 0.0345}, {"sequence": "TAAGTTAA", "PBM E-score": 0.205}, {"sequence": "GTATGCAC", "PBM E-score": -0.0721}, {"sequence": "CACTTTTC", "PBM E-score": -0.0644}, {"sequence": "GATCGGCC", "PBM E-score": -0.266}, {"sequence": "CCGCCGCG", "PBM E-score": -0.156}, {"sequence": "ATCCTTTG", "PBM E-score": -0.046}, {"sequence": "ACCTTTTA", "PBM E-score": 0.00456}, {"sequence": "CCTGGATA", "PBM E-score": -0.135}, {"sequence": "ATGCCCGG", "PBM E-score": -0.332}, {"sequence": "AAAATCCT", "PBM E-score": 0.0944}, {"sequence": "GCAGTGTA", "PBM E-score": 0.069}, {"sequence": "GAGTACTC", "PBM E-score": 0.0282}, {"sequence": "ACAGGCCG", "PBM E-score": -0.00279}, {"sequence": "TGGTGGAA", "PBM E-score": -0.112}, {"sequence": "AACACTCA", "PBM E-score": 0.0881}, {"sequence": "AGGAGCCA", "PBM E-score": -0.0259}, {"sequence": "ACTGACGA", "PBM E-score": -0.0634}, {"sequence": "AGATACTC", "PBM E-score": -0.0757}, {"sequence": "GAAAAATA", "PBM E-score": -0.0179}, {"sequence": "GCTGCCAC", "PBM E-score": -0.275}, {"sequence": "AAGGACAT", "PBM E-score": 0.134}, {"sequence": "AGTCTCCG", "PBM E-score": -0.0806}, {"sequence": "GAACCTTC", "PBM E-score": 0.179}, {"sequence": "GAAAGCGC", "PBM E-score": 0.0787}, {"sequence": "GTAAAAGA", "PBM E-score": 0.227}, {"sequence": "TTCCTCAA", "PBM E-score": 0.0878}, {"sequence": "ACAGCTGG", "PBM E-score": -0.161}, {"sequence": "CGAAGCAG", "PBM E-score": -0.143}, {"sequence": "AACCAGTG", "PBM E-score": -0.0417}, {"sequence": "ACCAAAGT", "PBM E-score": -0.141}, {"sequence": "CACTTTAA", "PBM E-score": 0.0788}, {"sequence": "CGTGTACA", "PBM E-score": 0.388}, {"sequence": "CACTGCAG", "PBM E-score": -0.136}, {"sequence": "CTAATTTA", "PBM E-score": 0.119}, {"sequence": "CCTAGACG", "PBM E-score": -0.149}, {"sequence": "ATGGCGTG", "PBM E-score": 0.204}, {"sequence": "AGATTCGC", "PBM E-score": -0.176}, {"sequence": "ATACCACG", "PBM E-score": -0.014}, {"sequence": "CTATTCTA", "PBM E-score": 0.0184}, {"sequence": "GCCGTCAC", "PBM E-score": -0.236}, {"sequence": "AGAATATG", "PBM E-score": 0.0812}, {"sequence": "CGGGTGAC", "PBM E-score": -0.04}, {"sequence": "GCGACGCC", "PBM E-score": -0.187}, {"sequence": "CAGTAGAA", "PBM E-score": -0.107}, {"sequence": "AACTTCCT", "PBM E-score": 0.15}]}]}
